Experimental data taken from PubChem BioAssay AID1345083 (National Center for Advancing Translational Sciences (NCATS), 2018).
Values joined by “and” are separate entries in the source; they are usually repeats but may differ in a detail not shown here. Identical values can stand only once. In all, about 94,000 compounds went through this assay and about 6,200 (6.6%) were called active. This list was built around the results that the source calls inconclusive (neither active nor inactive); the mix of calls is not that of the screen. The call rests on the fitted dose curve; in most records, active means well fitted inhibition curve with a large enough effect; inconclusive means small, poorly fitted or top-dose-only effect; inactive means flat fitted curve, though single readings scatter. Potencies beside an inconclusive call are fits to weak or partial responses and may not hold up.

Test: Cytotoxic Profiling in HEK 293 Cell Line of Diverse Libraries Using Quantitative High-Throughput Screening; further: nearly all actives have a fitted effect of over 60% in size
Settings: HEK 293 viability, ATP luminescence (CellTiter-Glo), 48-72 h; series mostly up to 115 µM
Summary of the method: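 Cells seeded first (HEK 293, 250 cells/well), then compound added by pintool. Incubation ran 48 or 72 hr at 37 degree Celsius. CellTiter-Glo was added and luminescence imaged after 10 min at room temperature.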
Potency means the concentration at half of the fitted maximal effect; tags describe the fitted curve by direction and shape.

Row | SMILES | Potency
1 | COc1ccc(NC(=O)Cc2c[nH]c3ncc(-c4ccccc4)cc23)cc1OC | active: 89.1 µM
2 | C[S+](=O)([O-])CCn1ncc2cc(OCc3cccc(-c4ccc(F)cc4)c3)ccc21 | inconclusive: 22.4 µM [inhibitor, full curve, poor fit]
3 | O=S(=O)(c1ccccc1F)N1CC(c2nnc(-c3ccncc3)o2)C2(CCOCC2)C1 (stereo not drawn) | inactive
4 | CCC(C)NC(=O)C1CCCN(Cc2cccc(-c3ccsc3)c2)C1 (stereo not drawn) | active: 44.7 µM
5 | COc1ccc(NC(=O)C2=NO[C@@H]3CN(Cc4ccc(F)cc4)C[C@H]23)cc1 | inconclusive: 39.8 µM [inhibitor, full curve]
6 | Cc1cccc(-c2nocc2CCC(=O)NC(C)c2ccc(F)cc2)c1 (stereo not drawn) | inconclusive: 35.5 µM [inhibitor, partial curve, poor fit]
7 | CCc1cc(=O)n(CC(=O)N2CCN(c3ccccc3F)CC2)c(N2CCOCC2)n1 | active: 39.8 µM
8 | CCS(=O)(=O)N(C1CC1)C1CCOC2(CCN(C(=O)c3ccccc3)CC2)C1 (stereo not drawn) | inactive
9 | COCCn1ncc(N2CCC(C(=O)Nc3ccc(C)cc3)C2)cc1=O (stereo not drawn) | inactive
10 | CCNC(=O)N(C1CC1)C1CCOC2(CCN(C(=O)Nc3ccccc3F)CC2)C1 (stereo not drawn) | inactive
11 | COc1ccc(C(=O)N2CC[C@@H]3COCCN(C)[C@@H]3C2)c(OC)c1 | inconclusive: 100 µM [inhibitor, partial curve, poor fit]
12 | O=C1CO[C@H]2CCN(Cc3ccccc3O)CC[C@@H]2N1Cc1ccccc1 | inconclusive: 112 µM [inhibitor, single point]
13 | COc1ccc(-c2ccc(C(=O)N3CCN(C(=O)c4ccc(C(F)(F)F)cc4)CC3)cc2)nn1 | inactive
14 | CC(=O)N1CCCN(Cc2nnc(C(=O)N3CCC[C@@H]3c3cccc(F)c3)n2-c2ccccc2)CC1 | inconclusive: 50.1 µM [inhibitor, partial curve, poor fit]
15 | CCC1(N2CCN(C(=O)Nc3ccc(Cl)cc3C)CC2)CCN(C(=O)NC)C1 (stereo not drawn) | inconclusive: 31.6 µM [inhibitor, full curve, poor fit]
16 | CC(C)(C)C(=O)N1CCC2(C1)C(=O)N(CCc1ccccc1)c1ccccc12 (stereo not drawn) | inconclusive: 50.1 µM [inhibitor, partial curve, poor fit] and inconclusive: 79.4 µM [inhibitor, partial curve, poor fit]
17 | NCc1cccc(-c2cccc(Cl)c2)c1 | inconclusive: 112 µM [inhibitor, partial curve, poor fit]
18 | COc1ccc(CN2CCc3nc(C(C)C)nc(-c4ccc(O)cc4)c3CC2)cc1 | inconclusive: 89.1 µM [inhibitor, single point]
19 | CC(C)CCNC(=O)c1cnc2n1CCN(Cc1ccncc1Cl)CC2 | inconclusive: 112 µM [inhibitor, partial curve, poor fit]
20 | O=C(c1ccc(C(F)(F)F)cc1)N1CCC(n2c(=O)[nH]c3ccccc32)CC1 | inconclusive: 56.2 µM [inhibitor, partial curve, poor fit]
21 | O=C(c1ccccc1)N1CCC(C(=O)N2CCC(Cc3nc(-c4ccc(F)cc4)no3)CC2)CC1 | inconclusive: 20 µM [inhibitor, partial curve, poor fit]

Row | SMILES | Potency
22 | Cn1ncc2c(C(=O)CCc3ccc(F)cc3)cc(-c3ccc(Cl)cc3Cl)nc21 | active: 35.5 µM
23 | COc1cccc(NC(=O)N2[C@@H]3CC[C@H]2CC(NC(=O)c2cnc(C)cn2)C3)c1 (stereo partly drawn) | inactive
24 | COc1ccc(-c2cc(N3CCCN(C(=O)c4ccccc4Cl)CC3)n[nH]2)cc1 | inconclusive: 39.8 µM [inhibitor, partial curve, poor fit]
25 | COc1cc(=O)n2c(c1C(=O)Nc1cc(F)ccc1C)CCCC2 | inactive
26 | CCOC(=O)[C@@H]1CN(C(=O)CC(C)(C)C)[C@H]2c3cccc(C)c3O[C@@H]12 | inconclusive: 50.1 µM [inhibitor, partial curve, poor fit]
27 | OC1CC(c2cc(N3CCN(c4nsc5ccccc45)CC3)ncn2)C1 (stereo not drawn) | active: 11.2 µM
28 | COc1ccccc1-c1cccc(C(=O)N2CCN(C(C)=O)CC2)c1 | inactive
29 | O=C(c1ccno1)N1CCOC[C@H](Oc2ccc(C(F)(F)F)cc2)C1 | inactive
30 | CC(=O)c1ccc(NC(=O)O[C@@H]2CO[C@H]3[C@@H]2OC[C@@H]3NC(=O)COc2ccccc2)cc1 | inconclusive: 112 µM [inhibitor, partial curve]
31 | O=C(c1ccoc1)N1CCCN(CCc2ccccc2)c2ccccc21 | inconclusive: 39.8 µM [inhibitor, full curve, poor fit]
32 | OC1(CNC2CCN(Cc3cc(F)cc(F)c3)CC2)CNCCOC1 (stereo not drawn) | inactive
33 | CC(C)CN(C1CCN(C)CC1)C1CN(C(=O)c2n[nH]c3ccccc23)C1 | inactive
34 | Cc1ccc(OCC(=O)N2CCC(CCOc3ccc(F)cc3)C2)cc1 (stereo not drawn) | inconclusive: 79.4 µM [inhibitor, partial curve, poor fit]
35 | COc1cccc(CC(=O)N2CCC3(CC2)NC(=O)N(c2cccc(F)c2)N3)c1 | inconclusive: 44.7 µM [inhibitor, partial curve, poor fit]
36 | CN(C)[C@@H]1CN(C(=O)c2ccncc2)CCC1(O)c1ccccc1 (stereo partly drawn) | inactive
37 | Cc1ncsc1CN1CCCC(c2nc(CCOCC3CCCC3)no2)C1 (stereo not drawn) | inconclusive: 50.1 µM [inhibitor, partial curve, poor fit]
38 | COc1cccc(-c2ccccc2NC(=O)C2CCN(C/C(C)=C/c3ccccc3)CC2)c1 | inconclusive: 17.8 µM [inhibitor, full curve, poor fit]
39 | COc1ccc(-c2ccc3c(c2)C(=O)N2CCN(C(=O)c4cccc(F)c4)C[C@@H]2C(=O)N3)cc1 | inconclusive: 56.2 µM [inhibitor, partial curve, poor fit]
40 | O=C(Nc1ccc(F)cc1)c1cccn2cncc12 | inconclusive: 28.2 µM [inhibitor, full curve]
41 | COc1cccc(C(=O)N2CCC3(CC2)CC(N(Cc2ccccc2)C2CC2)CCO3)c1 (stereo not drawn) | inconclusive: 50.1 µM [inhibitor, partial curve, poor fit]
42 | O[C@H]1[C@H](NCC2CC2)[C@H]2CO[C@H](O2)[C@@H]1N1CCCCC1 | inactive

Row | SMILES | Potency
43 | O=C(NCc1cccs1)C1CCN(c2ccnc3ccnn23)CC1 | inconclusive: 20 µM [inhibitor, partial curve, poor fit]
44 | COc1cccc(Nc2ncc3c(n2)C(C)(C(=O)NCCc2ccccn2)CC3)c1 (stereo not drawn) | active: 100 µM
45 | Cc1cccc2c(C3CCN(S(=O)(=O)c4cc(F)c(F)cc4Cl)CC3)c[nH]c12 | inconclusive: 35.5 µM [inhibitor, full curve, poor fit]
46 | Cc1ccc(C(=O)N[C@@H](Cc2ccccc2)C(N)=O)cc1N1CCNC1=O | inactive
47 | COc1ccc2c3c1C(CO)N(Cc1ccccc1)CC3=CC(C)(C)CO2 (stereo not drawn) | inconclusive: 50.1 µM [inhibitor, partial curve, poor fit]
48 | Cn1cc(CN2CCN(Cc3ccccc3)CC2)ccc1=O | inactive
49 | CCN(CC)C(=O)CCc1c(C)nn(-c2ccc(F)cc2)c1Oc1cccc(F)c1 | inconclusive: 39.8 µM [inhibitor, full curve, poor fit]
50 | COCCNC(=O)c1coc(COc2ccc3c(c2)C(c2cccc(F)c2)N(C(=O)C2CC2)CC3)n1 (stereo not drawn) | inconclusive: 12.6 µM [inhibitor, full curve, poor fit]
51 | O=C1CCC2(CCN(Cc3ccc4[nH]ccc4c3)CC2)CN1CCc1ccccc1 | inconclusive: 56.2 µM [inhibitor, partial curve, poor fit]
52 | Cn1nccc1-c1cnc2n[nH]c(-c3ccc4c(c3)OCO4)c2n1 | inconclusive: 50.1 µM [inhibitor, partial curve, poor fit]
53 | CC(C)CCN1CC[C@H](c2nc3ccccc3[nH]2)C1 | inconclusive: 126 µM [inhibitor, partial curve, poor fit]
54 | O=C1CCN(Cc2cccnc2)CCCC(c2nc(-c3cccnc3)no2)CCN1 (stereo not drawn) | inconclusive: 50.1 µM [inhibitor, partial curve, poor fit]
55 | CN1[C@@H](CCC(=O)N2CCC(O)CC2)CNC(=O)[C@@H]2[C@H]1CCN2Cc1ncc[nH]1 | inactive
56 | CC(=O)N1CC(CO)C2(CCN(C(=O)c3nccc4ccccc34)CC2)C1 (stereo not drawn) | inconclusive: 89.1 µM [inhibitor, single point]
57 | O=C(Cc1ccccc1)Nc1ccc([C@@H](O)[C@H]2COCC(=O)N2Cc2ccc(C(F)(F)F)cc2)cc1 | inconclusive: 50.1 µM [inhibitor, partial curve, poor fit]
58 | COc1ccc(-c2cc(N3CCCC(NC(=O)c4ccc(C)c(F)c4)C3)n[nH]2)cc1 (stereo not drawn) | inconclusive: 39.8 µM [inhibitor, full curve, poor fit]
59 | CCNC(=O)N[C@H]1CO[C@H]2[C@@H]1OC[C@@H]2Nc1nccc(-c2ccc(OC)cc2)n1 | inconclusive: 89.1 µM [inhibitor, partial curve]
60 | CC(C)NC(=O)C1CCN(Cc2ccccc2-c2ccccc2F)CC1 | inactive
61 | CCOc1ccccc1CN1CCC(Cc2ccc(C(=O)N3CCOCC3)cc2)CC1 | inconclusive: 44.7 µM [inhibitor, full curve, poor fit]
62 | CC(=O)NCC1CCCN(Cc2ccc(-c3ccccc3C#N)o2)C1 (stereo not drawn) | inactive
63 | COC(=O)[C@@H]1Cc2ncn(Cc3ccc(Cl)cc3)c2CN1Cc1ccc(C(=O)O)cc1 | inactive
